Here are results for 58 compounds from the supplement of paper PMC9446081.

Out of some 39,000 compounds screened, about 220 (0.56%) showed activity. Some of the results follow.
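Also: static incubation at 37 °C against the wild-type strain, values averaged over two biological replicates.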

The test system of the test is Escherichia coli K-12 BW25113. In words: relative growth (OD600 normalised to plate interquartile mean) (fraction); higher = less growth inhibition, active = 0.2 or less. As to conditions: 50 µM; LB; incubation time: overnight (16-24 h).
With `COc1ccc(CN(C)C[C@@H]2Oc3ccc(NC(=O)Nc4cccc5ccccc45)cc3C(=O)N([C@H](C)CO)C[C@H]2C)cc1`, the relative growth was inactive: 0.997.
Consider `C[C@H](CO)N1C[C@H](C)[C@H](CN(C)Cc2ccc3c(c2)OCO3)Oc2c(NC(=O)Nc3ccc(C(F)(F)F)cc3)cccc2C1=O`, for which the relative growth is inactive: 0.988.
For `C[C@@H]1CN([C@@H](C)CO)S(=O)(=O)c2ccc(Br)cc2O[C@H]1CN(C)Cc1cccc(F)c1`, the relative growth was inactive: 1.04.
The result for `C[C@H](CO)N1C[C@H](C)[C@H](CN(C)S(=O)(=O)c2ccccc2)Oc2c(NS(=O)(=O)c3ccccc3)cccc2C1=O` reads inactive: 1.01.
As for `C[C@@H]1O[C@@H](O[C@@H]2[C@@H](O)[C@H](C)O[C@@H](OC[C@H]3O[C@@H](Oc4c(-c5ccc(O)cc5)oc5cc(O)cc(O)c5c4=O)[C@H](O)[C@@H](O)[C@H]3O)[C@@H]2O)[C@H](O)[C@H](O)[C@H]1O`, the relative growth is inactive: 1.03.
For the compound `C[C@H](CO)N1C[C@H](C)[C@@H](CN(C)C(=O)c2cnccn2)Oc2ncc(-c3cccc(C#N)c3)cc2C1=O`, the relative growth was inactive: 1.01.
As to `COc1ccc(S(=O)(=O)N(C)C[C@H]2Oc3c(NC(=O)C4CCOCC4)cccc3C(=O)N([C@@H](C)CO)C[C@H]2C)cc1`, the relative growth is inactive: 0.995.
For the compound `CN(C)CCCNC(=O)C[C@@H]1CC[C@H]2[C@@H](COc3ccc(NC(=O)c4ccccc4F)cc3C(=O)N2C)O1`, the relative growth is inactive: 0.983.
With `Cc1noc(C)c1S(=O)(=O)Nc1ccc2c(c1)C(=O)N([C@H](C)CO)C[C@@H](C)[C@@H](CN(C)CC1CC1)O2`, the relative growth is inactive: 0.989.
`C[C@@H]1CN([C@H](C)CO)C(=O)c2cc(NC(=O)C3CCCCC3)ccc2O[C@@H](C)CCCCO[C@@H]1CN(C)Cc1ccccc1`: the relative growth was inactive: 0.872.
The result for `O=C(NC1Cc2ccccc2C1)[C@@H]1[C@@H](CO)[C@@H]2Cn3c(cccc3=O)[C@@H]2N1C(=O)c1cnccn1` reads inactive: 0.983.
Regarding `C[C@H](CO)N1C[C@H](C)[C@@H](CN(C)CC2CC2)OCCCC[C@H](C)Oc2ccc(NS(C)(=O)=O)cc2C1=O`, the relative growth is inactive: 0.981.
For `CC(C)NC(=O)N(C)C[C@@H]1Oc2ccc(NS(=O)(=O)c3ccccc3)cc2CC(=O)N([C@H](C)CO)C[C@@H]1C`, the relative growth was inactive: 0.996.
The result for `CN(C)CCNc1cn[nH]c(=O)c1Cl` reads inactive: 1.04; that for `C[C@@H]1CN([C@H](C)CO)S(=O)(=O)c2ccc(C#C[C@@H](C)O)cc2O[C@H]1CN(C)C(=O)C1CCCCC1`, inactive: 0.985.
For the compound `CNC[C@H]1Oc2ccc(NS(=O)(=O)c3cn(C)cn3)cc2CC(=O)N([C@H](C)CO)C[C@H]1C`, the relative growth is inactive: 0.981.
The result for `COCC#Cc1ccc([C@@H]2[C@H]3CN(C(=O)CN4CCOCC4)CC(=O)N3[C@H]2CO)cc1` reads inactive: 1.01.
Turning to `O=C(O)CC1CCOCC1`, the relative growth is inactive: 0.982.
The result for `C[C@H]1CN([C@@H](C)CO)C(=O)Cc2cc(NC(=O)Nc3cccc4ccccc34)ccc2O[C@@H]1CN(C)Cc1ccc2c(c1)OCO2` reads inactive: 1.02; that for `COc1ccc([Si](C)(C)[C@@H]2[C@@H](CC(=O)N3CCC[C@H]3CO)O[C@]3(C(=O)N(Cc4ccc(N5C(=O)c6cccc7cccc5c67)cc4)c4ccccc43)[C@H]2C)cc1`, inactive: 1.03.
The result for `C[C@@H]1CCCCO[C@H](CN(C)S(=O)(=O)c2ccc(F)cc2)[C@@H](C)CN([C@H](C)CO)C(=O)c2cc(NC(=O)Nc3cccc4ccccc34)ccc2O1` reads inactive: 1.03; that for `C[C@@H]1CCCCO[C@H](CN(C)Cc2ccccc2)[C@@H](C)CN([C@@H](C)CO)C(=O)c2cc(NS(=O)(=O)c3cccs3)ccc2O1`, inactive: 0.896.
For the compound `CC(=O)O[C@H]1[C@H](Oc2cc(O)cc(O)c2C(=O)c2cc(O)cc(O)c2)O[C@H](CO)[C@@H](OC(=O)c2ccccc2)[C@@H]1O`, the relative growth was inactive: 1.
The result for `COCCOC(=O)N1C(=O)[C@@]2(c3cc(C#Cc4ccc(OC)cc4)ccc31)[C@H](c1ccc(OCCO)cc1)N1[C@H](c3ccccc3)[C@H](c3ccccc3)OC(=O)[C@H]1[C@@H]2C(N)=O` reads inactive: 1.09; that for `Cc1noc(C)c1NC(=O)N(C)C[C@@H]1OCCCC[C@@H](C)Oc2ccc(NC(=O)C3CCCCC3)cc2C(=O)N([C@H](C)CO)C[C@H]1C`, inactive: 0.963; that for `C[C@@H]1CN([C@H](C)CO)C(=O)Cc2cc(NS(=O)(=O)c3ccc(Cl)cc3)ccc2O[C@H]1CN(C)Cc1ccc(Cl)c(Cl)c1`, inactive: 0.976.
The result for `O=C1N[C@@H]2[C@@H](O)[C@@H](O)[C@H](O)[C@@H](CO)N2C1=O` reads inactive: 0.983.
`C[C@@H]1CCCCO[C@@H](CN(C)Cc2ccc(C(=O)Nc3ccccc3N)cc2)[C@@H](C)CN([C@H](C)CO)C(=O)c2cc(NC(=O)Nc3cccc4ccccc34)ccc2O1`: the relative growth was inactive: 1.01.
In the case of `C[C@@H]1CCCCO[C@H](CN(C)C(=O)CCC(F)(F)F)[C@H](C)CN([C@H](C)CO)C(=O)c2cc(NS(=O)(=O)c3ccc(F)cc3)ccc2O1` it was inactive: 1.
`C[C@H](CO)N1C[C@H](C)[C@H](CN(C)S(=O)(=O)c2ccc(F)cc2)Oc2c(NS(=O)(=O)c3cn(C)cn3)cccc2C1=O`: the relative growth is inactive: 0.988.
Consider `C[C@@H]1CN([C@H](C)CO)C(=O)c2cccc(NC(=O)Nc3cccc4ccccc34)c2O[C@@H]1CN(C)C(=O)NC1CCCCC1`, for which the relative growth is inactive: 1.02.
On to `c1ccc(Oc2cccc(Oc3ccccc3)c2)cc1`, for which the relative growth was inactive: 0.931.
The result for `COc1ccc(S(=O)(=O)Nc2ccc3c(c2)C(=O)N([C@@H](C)CO)C[C@@H](C)[C@H](CN(C)C(=O)CCC(F)(F)F)OCCCC[C@H](C)O3)cc1` reads inactive: 1.
Regarding `Cc1cc(C)cc(OCC2CNC(=O)O2)c1` (stereo not drawn), the relative growth is inactive: 1.13.
`C[C@@H]1CN([C@@H](C)CO)C(=O)c2cc(NC(=O)Nc3ccc(C(F)(F)F)cc3)ccc2O[C@H]1CN(C)S(C)(=O)=O`: the relative growth was inactive: 0.942.
As for `Cc1noc(C)c1NC(=O)N(C)C[C@H]1Oc2c(NC(=O)c3ccc(-c4nccs4)cc3)cccc2C(=O)N([C@H](C)CO)C[C@H]1C`, the relative growth was inactive: 0.957.
For `NCC[C@H]1CC[C@@H](NC(=O)C2CCCC2)[C@H](CO)O1`, the relative growth is inactive: 0.987.
Regarding `COc1ccc(CN(C)C[C@@H]2Oc3c(NC(=O)c4ccc(-c5nccs5)cc4)cccc3C(=O)N([C@@H](C)CO)C[C@H]2C)cc1`, the relative growth is inactive: 1.02.
Take `C[C@@H]1CN([C@H](C)CO)C(=O)c2cc(NC(=O)NC3CCCCC3)ccc2O[C@@H](C)CCCCO[C@@H]1CN(C)CC1CCCCC1`: the relative growth is inactive: 1.01.
Consider `C[C@H]1CCCCO[C@@H](CN(C)CC2CCCCC2)[C@@H](C)CN([C@@H](C)CO)C(=O)c2cc(NS(=O)(=O)c3cccs3)ccc2O1`, for which the relative growth is inactive: 0.998.
Take `O=C1O[C@@H](c2ccccc2)[C@@H](c2ccccc2)N2[C@@H](c3ccc(O)cc3)[C@]3(C(=O)Nc4ccccc43)[C@@H](C(=O)Nc3nc4ccccc4s3)[C@H]12`: the relative growth was inactive: 1.01.
Turning to `Cc1noc(C)c1NC(=O)N(C)C[C@H]1OCCCC[C@@H](C)Oc2ccc(NS(=O)(=O)c3cccs3)cc2C(=O)N([C@H](C)CO)C[C@H]1C`, the relative growth is inactive: 0.992.
The result for `COc1ccc(CN(C)C[C@@H]2Oc3ccc(NS(=O)(=O)c4c(C)noc4C)cc3C(=O)N([C@@H](C)CO)C[C@H]2C)cc1` reads inactive: 0.99.
Take `CC1=NCCC2c3ccc(O)cc3NC12` (stereo not drawn): the relative growth was inactive: 1.07.
In the case of `[N-]=[N+]=NCc1ccccc1C[C@]1(C(=O)N2CCCCC2)N=C(c2ccc(OCCCO)cc2)O[C@H]1c1ccccc1` it was inactive: 1.02.
As for `NC(=O)c1cc(S(=O)(=O)N2CCOCC2)ccc1F`, the relative growth was inactive: 1.02.
Consider `CCCCC[C@H](O)/C=C/[C@@H]1[C@H]2C/C(=C/CCCC(=O)O)O[C@@H]2C[C@H]1O`, for which the relative growth was inactive: 1.01.
Consider `COCC(=O)Nc1ccc2c(c1)C(=O)N(C)[C@H]1CC[C@@H](CC(=O)NCc3ccc(OC)cc3)O[C@H]1CO2`, for which the relative growth was inactive: 0.981.
Consider `C[C@H](CO)N1C[C@H](C)[C@H](CN(C)C(=O)NC2CCCCC2)Oc2c(NC(=O)Nc3ccc(C(F)(F)F)cc3)cccc2C1=O`, for which the relative growth is inactive: 0.933.
Turning to `C[C@@H]1CCCCO[C@H](CN(C)C(=O)Nc2ccc(F)cc2)[C@@H](C)CN([C@@H](C)CO)C(=O)c2cc(NS(=O)(=O)c3cccs3)ccc2O1`, the relative growth is inactive: 0.995.
Consider `C[C@H](CO)N1C[C@H](C)[C@@H](CN(C)C(=O)Nc2cccc3ccccc23)Oc2c(NC(=O)C3CCCCC3)cccc2C1=O`, for which the relative growth is inactive: 1.
Take `COCC#Cc1ccc2c(c1)O[C@H](CN(C)C(=O)CN(C)C)[C@@H](C)CN([C@H](C)CO)S2(=O)=O`: the relative growth was inactive: 1.
As for `C[C@@H]1CCCCO[C@@H](CN(C)Cc2ccc3c(c2)OCO3)[C@@H](C)CN([C@H](C)CO)C(=O)c2cc(NC(=O)Nc3ccccc3)ccc2O1`, the relative growth was inactive: 0.997.
Take `COc1ccc(NC(=O)N(C)C[C@H]2OCCCC[C@@H](C)Oc3ccc(NS(=O)(=O)c4ccccc4)cc3C(=O)N([C@H](C)CO)C[C@H]2C)cc1`: the relative growth is inactive: 1.03.
For `O=C(C[C@@H]1CC[C@H](NC(=O)Cc2ccccn2)[C@H](CO)O1)NCCc1ccncc1`, the relative growth was inactive: 1.01.
On to `C[C@@H]1CCCCO[C@H](CN(C)Cc2ccc(C(=O)Nc3ccccc3N)cc2)[C@@H](C)CN([C@H](C)CO)C(=O)c2cc(NC(=O)c3ccccc3)ccc2O1`, for which the relative growth is inactive: 0.993.
Regarding `CC(C)NC(=O)N(C)C[C@H]1Oc2ccc(NS(=O)(=O)c3ccc(F)cc3)cc2CC(=O)N([C@H](C)CO)C[C@@H]1C`, the relative growth was inactive: 1.01.
In the case of `C[C@H]1CN([C@@H](C)CO)C(=O)c2cc(C#CC3(O)CCCC3)cnc2O[C@@H]1CN(C)C(=O)Cc1ccncc1`, the relative growth was inactive: 0.989.
